Measured values: PMC12040169 (PLOS Biology, 2025)
The other results are listed elsewhere or left out.

Test system: T1, C. trachomatis L2/434/Bu expressing GFP (CTL2-GFP)
T1 construct: L2/434/Bu GFP intracellular growth in HeLa cells
Design: species or system HeLa; C. trachomatis total inclusion area by high-content imaging, normalised to DMSO
Conditions: total inclusion area; 28.5 h, 10 µM; inhibitor
Summary of the method: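 Following bulk GFP and resorufin fluorescence reads, infected cells were fixed, Hoechst-stained and imaged on a high-content platform. Inclusion total area and number per well served as growth proxies; nuclei counts indicated host viability. MICs were derived as for the fluorescence assay.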

Row | SMILES | % of control remaining
1 | Cc1ccc(OCC(=O)NC(=S)Nc2cc(C(=O)O)ccc2C)cc1 [CBK265000] | 116.7
2 | COc1cnc(C(=O)NCc2ccccc2Cl)cc1O [CBK287993] | 100.537
3 | O=C(CC(CN1CCN(CCN2CCCC2)CC1)C(=O)O)Nc1ccccc1 (stereo not drawn) [CBK286833] | 122.073
4 | O=C(Nc1c(F)cc(F)cc1OC1CCNCC1)c1cnccn1 [CBK050273T] | 79.7001
5 | O=C(NCc1nnc(-c2cccs2)o1)C1(c2ccccc2)CC1 [CBK284635] | 100.202
6 | Cc1ccccc1CSCC(=O)NCCN1CCOCC1 [CBK269207] | 86.8042
7 | CC(C)C(=O)Nc1c(-c2ccccc2)cnc2ncccc12 [CBK083713] | 66.974
8 | CCCCC(Sc1ccc2nnc(-c3ccccn3)n2n1)C(=O)O (stereo not drawn) [CBK287622] | 110.696
9 | CCC(C)NS(=O)(=O)c1ccc(OCC(=O)O)cc1 (stereo not drawn) [CBK266521] | 98.7545
10 | O=C(O)c1ccsc1NS(=O)(=O)c1ccc(Oc2ccccc2)cc1 [CBK042259] | 106.468
11 | CCCCNC(=S)N[C@H]1CC[C@@]2(C3=CC=CC4C=CC=CC34)CCN(C)[C@H]2C1 (stereo partly drawn) [CBK003610C] | 75.5742
12 | O=C(O)c1ccc(Cl)c(-c2ccc(/C=N/Nc3ccc([N+](=O)[O-])cc3)o2)c1 [CBK078331] | 101.155
13 | COc1nccnc1OC1CCN(Cc2ccc([N+](=O)[O-])cc2)CC1 [CBK084245] | 57.2533
14 | O=C(CN1CCN(c2ccc(C(F)(F)F)cn2)CC1)Nc1ccc2c(c1)OCO2 [CBK074680] | 105.309
15 | CC(=O)Nc1ccc(S(=O)(=O)NC2(C(F)(F)F)C(=O)Nc3c2c(=O)[nH]c(=S)n3C2CCCCC2)cc1 (stereo not drawn) [CBK268683] | 93.3962
16 | Cc1cccc(C)c1N1CCN(CCn2c(=S)[nH]c3ccccc3c2=O)CC1 [CBK267998] | 92.973
17 | O=c1[nH]cc(-c2ccccc2)cc1CNc1ccccc1-n1ccnc1 [CBK284769] | 93.7968
18 | O=C(CCSc1ccc(Cl)cc1)Nc1ccc(S(=O)(=O)N2CCOCC2)cc1 [CBK264133] | 105.592
19 | COCCNC(=O)c1ccc(-c2ccc(OC)cc2)nc1N1CCN(C(=O)c2ccco2)CC1 [CBK106010] | 108.839
20 | CCOC(=O)c1cn(CC2CC2)c2cc(F)c(F)cc2c1=O [CBK304195] | 50.8899
21 | O=C(Nc1cccc(-c2nnn[nH]2)c1)Nc1ccc(Cl)c(Cl)c1 [CBK155454] | 101.174
22 | CC(C)CC(CO)Nc1ncnc2ccc(S(C)(=O)=O)cc12 (stereo not drawn) [CBK304203] | 67.6459
23 | CCc1nc2ccc(C(=O)N(C)Cc3ccco3)cn2c1N(C)Cc1cccs1 [CBK145552] | 128.717
24 | Cc1cc(C(=O)Nc2ccc3ncccc3c2)ccc1Cl [CBK159804] | 97.8243
25 | O=C(c1c[nH]c(C(=O)N2CCN(c3ncccn3)CC2)c1)c1ccc(Cl)cc1Cl [CBK107418] | 86.6987
26 | COc1ccc(C2(CNC(=O)C(O)COc3ccccc3)CCCC2)cc1OC (stereo not drawn) [CBK014053] | 61.5199

Row | SMILES | % of control remaining
27 | COc1ccc(S(=O)(=O)N2Cc3ccccc3CC2C(=O)Nc2sc3c(c2C#N)CCCC3)cc1 (stereo not drawn) [CBK266363] | 89.016
28 | CCCn1c(SCC(=O)N2CCOCC2)nc2ccc(Br)cc2c1=O [CBK305929] | 92.7247
29 | CC(=O)c1cccc(NC(=O)CN2CCCC2c2cccs2)c1 (stereo not drawn) [CBK305143] | 48.3783
30 | Cc1cn(S(=O)(=O)c2ccc(Br)cc2)cn1 [CBK026488] | 73.8571
31 | Nc1cc(O)nc(SCCN2CCN(c3ccc(C(F)(F)F)cc3[N+](=O)[O-])CC2)n1 [CBK265225] | 101.354
32 | COc1ccc2c(c1)CCN=C2C[C@H]1CN(C(=O)C2CC2)CC[C@H]1CC(=O)O [CBK289154] | 96.6233
33 | Cc1ccc(-c2nc(C3CCN(C(=O)NC(C)C)CC3)n3ccccc23)cc1 [CBK046861] | 99.8199
34 | O=C(Nc1cccc2ccccc12)/C(=C\c1ccco1)NC(=O)c1ccc(Br)cc1 [CBK264587] | 100.925
35 | C[C@@H]1c2c(C(=O)OC(C)(C)C)ncn2-c2ccc(F)cc2N1CC(=O)N1CCCC1 [CBK016704] | 125.131
36 | c1ccc2oc(-c3cncc(NCCc4c[nH]c5ccccc45)n3)cc2c1 [CBK066068] | 103.18
37 | CCN1CCC[C@@H]1CNC(=O)c1cc(Cl)nc(OC)c1 [CBK174692] | 36.4925
38 | O=C1c2ccccc2C(=O)N1c1ccc2nc(SCc3nc4ccccc4[nH]3)sc2c1 [CBK263368] | 81.1482
39 | CC(C)C(=O)N1C[C@H]2CCc3nnc(-c4ccccc4)n3[C@H]2C1 [CBK283438] | 99.4645
40 | CN1CCOc2cc(S(=O)(=O)Nc3nnn[nH]3)ccc21 [CBK062389] | 81.8347
41 | CCS(=O)(=O)CCNC(=O)c1cnc(N2CCCCC2)nc1C [CBK307715] | 67.8576
42 | Cc1[nH]c2c(C)cccc2c1CC(=O)N(C)CCN(C)C [CBK282724] | 97.5473
43 | O=C(O)c1ccc(Cl)c(S(=O)(=O)N2CCCC2C(=O)O)c1 (stereo not drawn) [CBK265733] | 113.558
44 | Cn1c(=O)n(CC(=O)Nc2ccc(F)cc2)c2cccnc21 [CBK283919] | 57.381
45 | Cc1ccc(Cl)c(OC(C)C(=O)N2CCCC(C(N)=O)C2)c1 (stereo not drawn) [CBK304936] | 34.0789
46 | CN1CCC(N2CCN(C(=O)NCC3COc4ccccc4O3)CC2)CC1 (stereo not drawn) [CBK155881] | 81.0297
47 | O=C(NCCN1CCOCC1)c1cc(-c2cccc(Br)c2)nc2ccccc12 [CBK263625] | 105.429
48 | NC(=O)C1(N2CCCCC2)CCN(C(=O)CCCC(=O)O)CC1 [CBK286575] | 65.2049
49 | O=[N+]([O-])c1ccc(Cl)cc1N/N=C1\CN2CCC1CC2 [CBK217272] | 90.1692
50 | COc1ccc(-c2nc3ccccn3c2CN2CCC(C(=O)O)CC2)cc1 [CBK287052] | 105.033
51 | O=C(CSc1ncn(-c2ccccc2)n1)Nc1ccc2[nH]c(=O)[nH]c2c1 [CBK268212] | 100.296
52 | CCNC(=S)N[C@@H]1CC[C@@]2(c3ccc([N+](=O)[O-])cc3)CCN(CCc3ccccc3)[C@H]2C1 [CBK004677] | 90.3257

Row | SMILES | % of control remaining
53 | Cc1ccc(-c2ccccc2)n1-c1ccc(O)c(C(=O)O)c1 [CBK116375] | 111.838
54 | Nc1nonc1-c1nc2ccccc2n1CC(=O)NCc1ccccc1 [CBK264711] | 116.564
55 | COc1ccccc1OCCCN1C(=O)C2(CC(=O)N(C)C2=O)c2cc(F)ccc21 (stereo not drawn) [CBK075430] | 87.3023
56 | CCc1nn2c(C3CCNCC3)ccnc2c1-c1cccs1 [CBK284226] | 52.7547
57 | O=S(=O)(Nc1ccccc1O)c1ccc(OC(F)(F)F)cc1 [CBK043512] | 86.9162
58 | Cc1nc2sc3c(c2c2nc(CCC(=O)O)nn12)CC(C)(C)OC3 [CBK269168] | 117.055
59 | COc1ncc(-c2nccnc2NCc2ccc(F)cc2)c(OC)n1 [CBK037668] | 157.426
60 | CC(C)(C)C(=O)Nc1ccc(F)c(C(=O)N2CCc3[nH]ncc3C2)c1 [CBK305303] | 73.5138
61 | CCC(=O)N1CCCCC1c1nn(C)cc1-c1onc(C)c1C (stereo not drawn) [CBK283411] | 114.684
62 | Cc1c(C(=O)N(C)Cc2nc(C(F)(F)F)cs2)nnn1C1CCNCC1 [CBK304315C] | 38.7514
63 | Cc1c(CNC2(c3ccccc3F)CCCC2)c(=O)n(C)c(=O)n1C [CBK282986] | 119.768
64 | CS(=O)(=O)c1ccc(CN2C[C@@H]3OCC(=O)N(Cc4ccc(F)cc4)[C@@H]3C2)cc1 [CBK289690] | 119.181
65 | Cc1cc(C[C@@H]2COC[C@H]2NCc2cccc(Cl)c2)on1 [CBK284885] | 121.97
66 | CC(C)NC(=O)N[C@H]1CCN2C(=O)N(c3cccc4nsnc34)C(=O)[C@@H]2C1 [CBK289539] | 82.8343
67 | CN1C[C@@H](C(=O)NC(C)(C)C)[C@@]2(CCc3ccccc3C(=O)N2)C1 [CBK284796] | 123.374
68 | CCn1ncc(CN2CCCCCC2c2cc(C)no2)c1C (stereo not drawn) [CBK283008] | 113.483
69 | CN1C(=O)[C@@H](OC(=O)c2cccnc2)C[C@H]1c1ccc(F)cc1 [CBK283649] | 101.004
70 | CCNC(=O)NC[C@H]1C[C@@H]2CCN1C[C@@H]2c1cc(C2CCCC2)nc(C)n1 [CBK289122] | 102.529
71 | CC[C@H]1CN(C(C)=O)CC[C@H]1CC(=O)NCc1ccc2c(c1)OCO2 [CBK289131] | 117.851
72 | CCc1noc(C)c1C(=O)Nc1ncc(C)s1 [CBK288244] | 104.249
73 | COC(=O)c1ncn(CC(=O)N2CCCCCC2)n1 [CBK305184] | 69.5292
74 | CC(=O)c1cccc(NC(=O)CCCn2cc([N+](=O)[O-])cn2)c1 [CBK268911] | 97.8785
75 | Cc1cc(Cl)c(S(=O)(=O)Nc2ccon2)cc1OCC(=O)NC1CCCCC1 [CBK266785] | 86.1971
76 | CCOC(=O)NC(=O)Nc1cc2ccccc2c(Br)n1 [CBK063282] | 0.08094
77 | COc1cc(CNC(=O)C(C)SCc2ccccc2)ccn1 (stereo not drawn) [CBK298331] | 133.797
78 | OCC1CCCN1c1nccnc1-c1cccc(O)c1 (stereo not drawn) [CBK089052] | 85.1526
